Test results from PubChem BioAssay AID504845 (National Center for Advancing Translational Sciences (NCATS), 2011).
Out of some 390,000 compounds screened, about 150 (0.038%) were called active. Inconclusive results, whose numbers are uncertain, are shown with a selection of clear calls. The call rests on the fitted dose curve; in most records, active means well fitted inhibition curve with a large enough effect; inconclusive means small, poorly fitted or top-dose-only effect; inactive means no such curve, though single readings can be large or run the other way. Potencies beside an inconclusive call are fits to weak or partial responses and may not hold up. More than one record can exist for a structure, and the calls need not agree.
Further: nearly all actives have a fitted effect of over 75% in size.
On the % scale 0 is the no-effect control and ±100 the full control effect; potency means the concentration at half of the fitted maximal effect; tags describe the fitted curve by direction and shape.

Each compound was assayed against Regulator of G-protein signaling 4 (Homo sapiens) (UniProt P49798) (assay: Inhibitors of Regulator of G Protein Signaling (RGS) 4: qHTS). Conditions: Transcreener GDP fluorescence polarization, RGS4-accelerated GTP hydrolysis; series mostly up to 114 µM.
UniProt P49798, sequence (P49798 whole entry, looked up): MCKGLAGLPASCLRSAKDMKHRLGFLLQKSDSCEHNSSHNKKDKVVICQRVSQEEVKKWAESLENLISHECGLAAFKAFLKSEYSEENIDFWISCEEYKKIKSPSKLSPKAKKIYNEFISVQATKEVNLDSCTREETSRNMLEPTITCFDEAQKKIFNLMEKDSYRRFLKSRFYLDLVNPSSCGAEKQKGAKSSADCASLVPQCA
Summary of the method: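 MLSMR compounds (23 nl, pin-transferred) preincubated 10 min at room temperature with a 500nM (2x) first reagent, then RGS4 at 900nM (2x) plus Transcreener GDP mix added; fluorescence polarization (620/688 nm) read before and after 90 min at 30 °C.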
With CCSc1nc2ccc(N3C(=O)C4C5C=CC(C5)C4C3=O)cc2s1 (stereo not given) the Potency was inconclusive: 100 µM [inhibitor, single point]. With CCc1nnc(NC(=O)C=C(C)C)s1 the Potency was “inactive”. CCC(=O)c1ccc(OCC(=O)Nc2nc(-c3cccnc3)cs2)cc1 was tested, and the Potency was inconclusive: 28.2 µM [inhibitor, full curve, poor fit]. Cc1ccc(N2C(=O)C(Cl)=C(N3CCOCC3)C2=O)cc1Cl was tested, and the Potency was inconclusive: 89.1 µM [inhibitor, partial curve, poor fit]. In the case of CC(C)CC(=O)NC(=S)Nc1cc(C(F)(F)F)ccc1N1CCOCC1, the Potency is reported as “inactive”. In the case of COc1cccc(C(=O)Nc2cccc(-c3ccc(N4CCOCC4)nn3)c2)c1, the Potency is reported as “inactive”. For COc1cc(NC(=O)c2cccnc2)c(OC)cc1NC(=O)c1ccc(Br)cc1, the Potency was “inactive”. Cc1nc2c(-c3ccc(F)cc3)c(C)nn2c(C)c1CCC(=O)NC(C)CCc1ccco1 (stereo not given) was tested, and the Potency was inconclusive: 50.1 µM [inhibitor, partial curve, poor fit]. O=C1NC(Nc2nccs2)(C(F)(F)F)C(=O)N1CCc1ccccc1 (stereo not given) was tested, and the Potency was inconclusive: 79.4 µM [inhibitor, partial curve, poor fit]. With CCNC(=O)COC(=O)c1cc(-c2ccccc2)nn1-c1ccccc1 the Potency was inconclusive: 79.4 µM [inhibitor, single point]. For CC(C)CNC(=O)COC(=O)c1ccc(F)cc1Cl, the Potency was inconclusive: 70.8 µM [inhibitor, single point]. With c1ccc(CCNc2ncnc3scc(C4COc5ccccc5O4)c23)cc1 (stereo not given) the Potency was “inactive”. In the case of NC(=O)c1ccc(Nc2nnc(-c3ccc(O)cc3)c3ccccc23)cc1, the Potency is reported as inconclusive: 50.1 µM [inhibitor, partial curve, poor fit]. With Cc1cc(C)n(-c2nc3c(c(=O)[nH]c(=O)n3C)n2CC(O)COc2ccc(Cl)cc2Cl)n1 (stereo not given) the Potency was “inactive”. O=C(NC(=S)N(Cc1ccccc1)Cc1ccccc1)c1ccccc1F was tested, and the Potency was inconclusive: 50.1 µM [inhibitor, partial curve, poor fit]. Cc1ccc(Cc2ccc(C(=O)NNC(N)=S)o2)cc1 was tested, and the Potency was inconclusive: 39.8 µM [inhibitor, partial curve, poor fit]. With CC1CC(C)CN(CCCNC(=O)Cn2cccc2C(=O)c2ccccc2)C1 (stereo not given) the Potency was inconclusive: 89.1 µM [inhibitor, single point]. With Cc1nc2sc(C(=O)O)c(N)c2c2c1COC(C)(C)C2 the Potency was inconclusive: 89.1 µM [inhibitor, partial curve, poor fit]. COc1ccc(C2CC(=O)N3CN(c4ccc(C)c(Cl)c4)CSC3=C2C#N)cc1 (stereo not given) was tested, and the Potency was inconclusive: 31.6 µM [inhibitor, partial curve, poor fit]. For Cc1cc(C(=O)CSc2nc3ccccc3c(=O)[nH]2)c(C)n1C, the Potency was inconclusive: 70.8 µM [inhibitor, single point]. CCOC(=O)c1csc(NC(=O)CSc2nnnn2-c2ccc3c(c2)OCCO3)n1 was tested, and the Potency was inconclusive: 89.1 µM [inhibitor, single point]. COc1ccc(-n2c(=O)c3c4c(sc3n(Cc3ccc(C)cc3C)c2=O)CCC4)c(OC)c1 was tested, and the Potency was “inactive”. COc1ccc2c(c1)C1CC(C)(NC(=O)C1S(=O)(=O)c1ccc(F)cc1)O2 (stereo not given) was tested, and the Potency was inconclusive: 100 µM [inhibitor, single point]. For NC(=O)[C@@H]1CCCNc2c(I)cc([N+](=O)[O-])cc2C(=O)N[C@@H](Cc2ccccc2)C(=O)N[C@@H](Cc2cnc[nH]2)C(=O)N1, the Potency was inconclusive: 50.1 µM [inhibitor, partial curve, poor fit]. For CCCCCCCC1CC(/C(C)=N/NC(N)=O)OC1=O (stereo not given), the Potency was inconclusive: 20 µM [inhibitor, full curve, poor fit]. With CCn1c(SCC(=O)Nc2ccc(S(N)(=O)=O)cc2)nnc1-c1cccc(OC)c1 the Potency was inconclusive: 100 µM [inhibitor, single point]. Cc1ccc(S(=O)(=O)c2nc(Cc3ccccc3)oc2N2CCOCC2)cc1 was tested, and the Potency was inconclusive: 89.1 µM [inhibitor, single point]. With O=C(Nc1cc(C(F)(F)F)ccc1N1CCOCC1)c1cccnc1Cl the Potency was “inactive”. For O=C1NC(=O)C(CC(=O)N(Cc2cccs2)C2(C(=O)NC3CCCC3)CCCCC2)N1 (stereo not given), the Potency was inconclusive: 79.4 µM [inhibitor, single point]. With CC(C)(C)OC(=O)N1CCC(c2c(C(=O)Nc3ccc4c(c3)OCCO4)cnn2-c2ccc(F)cc2F)CC1 the Potency was “inactive”. For Cc1nc2ccccn2c1-c1ccnc(=S)[nH]1, the Potency was inconclusive: 50.1 µM [inhibitor, partial curve, poor fit]. With Cc1cc(N)ncc1[N+](=O)[O-] the Potency was “inactive”. CC1(C)C2CCC1(C)C(OCCNCCOC(=O)Nc1ccccc1)C2 (stereo not given) was tested, and the activity change, negative = inhibition was inactive: 8.27% [at 11.4 µM]. With CCCC[C@@H]1CCCO[C@@](C(=O)NCc2ccc(C)o2)(C(F)(F)F)C1 the Potency was inconclusive: 56.2 µM [inhibitor, partial curve, poor fit]. With Cc1ccc(CNC(C)c2ccccc2)cc1 (stereo not given) the Potency was “inactive”. For O=C(O)/C=C/C(=O)Nc1cccc2c1-c1ccccc1C2=O, the Potency was inconclusive: 79.4 µM [inhibitor, partial curve, poor fit]. With O=C(NCCN1CCCCC1)c1cccc2c1C(=O)c1ccc(N3CCCC3)cc1S2(=O)=O the Potency was inconclusive: 79.4 µM [inhibitor, single point]. Oc1ccc(NCc2cccc(OCc3ccc(F)cc3)c2)cc1 was tested, and the Potency was inconclusive: 31.6 µM [inhibitor, full curve, poor fit]. With CCOC(=O)c1c(NC(=O)/C=C/C(=O)O)sc(C)c1-c1ccc(C(C)(C)C)cc1 the Potency was inconclusive: 79.4 µM [inhibitor, partial curve, poor fit]. In the case of CCCCn1cnc2c(=S)nc(N)[nH]c21, the Potency is reported as inconclusive: 70.8 µM [inhibitor, partial curve, poor fit]. With Cc1nonc1C(=O)N/N=C/c1ccc([N+](=O)[O-])o1 the Potency was “inactive”. In the case of COc1cccc2c1Oc1ncccc1N(C(=O)CCC(=O)NCCC(C)C)C2, the Potency is reported as “inactive”. With OC[C@H]1O[C@@H](O[C@@H]2[C@@H](CO)O[C@](O)(CO)[C@H]2O)[C@H](O)[C@@H](O)[C@H]1O the Potency was inconclusive: 2.12 µM [inhibitor, partial curve, poor fit]. With COc1cccc(Cn2c(N)c(C#N)c3nc4ccccc4nc32)c1OC the Potency was “inactive”. In the case of CCOC(=O)C1CCCN(c2nc3c(S(=O)(=O)c4ccc(Br)cc4)nnn3c3ccsc23)C1 (stereo not given), the Potency is reported as inconclusive: 100 µM [inhibitor, partial curve, poor fit]. With Cc1ccccc1C(=O)NC1CCCN(Cc2ccccc2F)C1 (stereo not given) the Potency was “inactive”. With Cc1ccc(-c2cc[n+](Cc3ccccc3)cc2)cc1 the Potency was inconclusive: 79.4 µM [inhibitor, partial curve, poor fit]. COc1cc(OC)cc(C(=O)Nc2cc(-c3nc4ccccc4[nH]3)ccc2C)c1 was tested, and the Potency was inconclusive: 100 µM [inhibitor, single point]. With C=C(CC)C(=O)c1ccc(OCC(=O)O)c(Cl)c1Cl the Potency was inconclusive: 56.2 µM [inhibitor, partial curve, poor fit]. In the case of O=C(CSc1nc(=O)n(CCN2CCOCC2)c2c1CCCC2)Nc1ccc([N+](=O)[O-])cc1, the Potency is reported as inconclusive: 100 µM [inhibitor, partial curve, poor fit]. For CCN1CCN(C(=O)c2ccc3c(c2)N(Cc2cccc(Cl)c2)C(=O)c2ccccc2S3=O)CC1 (stereo not given), the Potency was “inactive”. In the case of CC(/C=C/c1ccco1)=N/NC(=O)c1ccccc1Cl, the Potency is reported as inconclusive: 79.4 µM [inhibitor, partial curve, poor fit]. With CC(C)NC(=S)NN=C1CCC(c2ccccc2)CC1 (stereo not given) the Potency was inconclusive: 79.4 µM [inhibitor, partial curve, poor fit]. For O=C(Nc1ccc(F)cc1)c1ccc(-n2cnnc2)cc1, the Potency was inconclusive: 79.4 µM [inhibitor, single point]. With C=CCSc1ncnc2c1oc1nc3c(cc12)COC(C)(C)C3 the Potency was “inactive”. With CC(C)CC(=NNC(=O)c1ccncc1)c1cc(Cl)ccc1O the Potency was “inactive”. O=S(=O)(O)c1ccc(O)c2cc(Nc3ccccc3)ccc12 was tested, and the Potency was inconclusive: 31.6 µM [inhibitor, full curve, poor fit]. O=C1NC(=O)C(c2ccccc2[N+](=O)[O-])=C1Nc1ccc(O)c(Cl)c1 was tested, and the Potency was active: 11.9 µM. For CC(NC(=O)NNC(=O)c1ccncc1)(C(F)(F)F)C(F)(F)F, the Potency was inconclusive: 89.1 µM [inhibitor, partial curve, poor fit]. For CCOC(=O)/C=c1\s/c(=C\c2ccc(C(F)(F)F)cc2)c(=O)n1CC(=O)NCc1ccco1, the Potency was inconclusive: 44.7 µM [inhibitor, partial curve, poor fit]. COc1cc([N+](=O)[O-])cc(/C=C2/SC(=S)N(Cc3ccccc3)C2=O)c1O was tested, and the Potency was inconclusive: 44.7 µM [inhibitor, partial curve, poor fit]. For COc1ccc(N(C(=O)c2cnccn2)C(C(=O)NC2CCCCC2)c2ccccc2)cc1 (stereo not given), the Potency was “inactive”. For CCC1(c2ccc(F)cc2)NC(=O)N(CC(=O)NC2CCCC(C)C2C)C1=O (stereo not given), the Potency was inconclusive: 79.4 µM [inhibitor, single point]. C#CCOc1ccc(C2C(C(=O)OC)=C(C)NC3=C2C(=O)c2ccccc23)cc1OCC (stereo not given) was tested, and the Potency was “inactive”. For O=C(NCCc1nc2ccccc2n1CCOc1ccc(Cl)cc1)C1CCCCC1, the Potency was inconclusive: 20 µM [inhibitor, full curve, poor fit].
